The source of these data is a collection of fitness landscapes (doi:10.1016/j.celrep.2020.107928).

To fix the notation:
B1: Caulobacter ParB omega fusion; a variant is named by its letters at X, in order, B8GW30 (parent)
chain: MESVVVGEPGMSEGRRGLGRGLSALLGEVDAAPAQAPGEQLGGSREAPIEILQRNPDQPRRTFREEDLEDLSNSIREKGVLQPILVRPSPDTAGEYQIVAGERAWRAAQRAGLKTVPIMVRELDDLAVLEIGIIENVQRADLNVLEEALSYKVLMEKFERTQENIAQTIGKSXSHVANXMRLLXLPDEVQSYLVSGELTAXHARAIAAAADPVALAKQIIEGGLSVRETEALARKAPNLSAGKSKGGRPPRVKDTDTQALESDLSSVLGLDVSIDHRGSTGTLTITYATLEQLDDLCNRLTRGI

Whole data set: some 81,000 sequences, median “one-hybrid fitness for binding parS DNA” near -0.17, cut for the highest 2% near 0.51. Some of the results follow. Where only a bound is given, the exact number is not on record here.

Variants of B1 are the subject of the experiment. The experiment can be described thus: one-hybrid fitness for binding parS DNA (scaled: cognate 1, non-cognate 0); higher = stronger binding. The following applies: with parS DNA site. In a few lines:
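Selection: bacterial one-hybrid in E. coli USO, HIS3 reporter with the site 19 bp from the promoter, 48 hours at 37°C on M9-minus-histidine plus 0.1 mM IPTG and 5 mM 3-AT. Libraries were Caulobacter ParB with four randomised specificity codons, sequenced on Illumina before and after selection. Fitness is the rescaled log change in variant-to-wild-type read ratio, anchored to the cognate and non-cognate sites.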
Take HWHC: the “one-hybrid fitness for binding parS DNA” value was no more than 0.2.

For the variant RYFI, the “one-hybrid fitness for binding parS DNA” value was no more than 0.2.

For the variant KYIR, the “one-hybrid fitness for binding parS DNA” value is no more than 0.2.

As for AAKP, the “one-hybrid fitness for binding parS DNA” value was no more than 0.2.

Take SRRY: the “one-hybrid fitness for binding parS DNA” value is no more than 0.2.

Take FLVC: the “one-hybrid fitness for binding parS DNA” value is no more than 0.2.

With EGWG, the “one-hybrid fitness for binding parS DNA” value is no more than 0.2.

On to PDMR, for which the “one-hybrid fitness for binding parS DNA” value was no more than 0.2.

RPSL: the “one-hybrid fitness for binding parS DNA” value was no more than 0.2.

On to VRPL, for which the “one-hybrid fitness for binding parS DNA” value is no more than 0.2.

For RTCR, the “one-hybrid fitness for binding parS DNA” value is no more than 0.2.

In the case of QANF, the “one-hybrid fitness for binding parS DNA” value is no more than 0.2.

For DGCI, the “one-hybrid fitness for binding parS DNA” value was no more than 0.2.

With IPSG, the “one-hybrid fitness for binding parS DNA” value was no more than 0.2.

Take MIQE: the “one-hybrid fitness for binding parS DNA” value is no more than 0.2.

PQSR: the “one-hybrid fitness for binding parS DNA” value was no more than 0.2.

For the variant WKKW, the “one-hybrid fitness for binding parS DNA” value was found to be 0.229.

Regarding SGKR, the “one-hybrid fitness for binding parS DNA” value was no more than 0.2.

Turning to ENWL, the “one-hybrid fitness for binding parS DNA” value was no more than 0.2.

As to WRNG, the “one-hybrid fitness for binding parS DNA” value is no more than 0.2.

Consider ECKS, for which the “one-hybrid fitness for binding parS DNA” value is no more than 0.2.

With ANET, the “one-hybrid fitness for binding parS DNA” value is no more than 0.2.

For the variant PTRS, the “one-hybrid fitness for binding parS DNA” value was no more than 0.2.

Turning to LVEY, the “one-hybrid fitness for binding parS DNA” value is no more than 0.2.

For the variant RIRR, the “one-hybrid fitness for binding parS DNA” value is no more than 0.2.

As for TSAL, the “one-hybrid fitness for binding parS DNA” value was no more than 0.2.

Consider CYRG, for which the “one-hybrid fitness for binding parS DNA” value was no more than 0.2.

SADM: the “one-hybrid fitness for binding parS DNA” value was no more than 0.2.

With QSEQ, the “one-hybrid fitness for binding parS DNA” value is no more than 0.2.

For the variant YRSK, the “one-hybrid fitness for binding parS DNA” value was no more than 0.2.

As for RAFY, the “one-hybrid fitness for binding parS DNA” value is 0.499.

For MYQK, the “one-hybrid fitness for binding parS DNA” value was no more than 0.2.

As to IWTE, the “one-hybrid fitness for binding parS DNA” value was no more than 0.2.

Take YFKS: the “one-hybrid fitness for binding parS DNA” value was no more than 0.2.

As for QLER, the “one-hybrid fitness for binding parS DNA” value was no more than 0.2.

In the case of LEER, the “one-hybrid fitness for binding parS DNA” value is no more than 0.2.

In the case of FKPC, the “one-hybrid fitness for binding parS DNA” value is no more than 0.2.

On to HCMH, for which the “one-hybrid fitness for binding parS DNA” value is no more than 0.2.

For the variant MDIS, the “one-hybrid fitness for binding parS DNA” value is no more than 0.2.

As to RMEL, the “one-hybrid fitness for binding parS DNA” value was no more than 0.2.

On to NFSR, for which the “one-hybrid fitness for binding parS DNA” value was no more than 0.2.

As to FTTC, the “one-hybrid fitness for binding parS DNA” value was no more than 0.2.

On to MNVE, for which the “one-hybrid fitness for binding parS DNA” value was no more than 0.2.

On to MQND, for which the “one-hybrid fitness for binding parS DNA” value is no more than 0.2.

Take RYNL: the “one-hybrid fitness for binding parS DNA” value is no more than 0.2.

As for AGQT, the “one-hybrid fitness for binding parS DNA” value was no more than 0.2.

Take PHSR: the “one-hybrid fitness for binding parS DNA” value is no more than 0.2.

Take VSST: the “one-hybrid fitness for binding parS DNA” value was no more than 0.2.

Take VTLR: the “one-hybrid fitness for binding parS DNA” value was no more than 0.2.

As for PQAI, the “one-hybrid fitness for binding parS DNA” value was no more than 0.2.

Turning to VRSC, the “one-hybrid fitness for binding parS DNA” value was no more than 0.2.

On to MIPQ, for which the “one-hybrid fitness for binding parS DNA” value is no more than 0.2.

Take MGCA: the “one-hybrid fitness for binding parS DNA” value is no more than 0.2.

Turning to MTSY, the “one-hybrid fitness for binding parS DNA” value is no more than 0.2.

In the case of GCML, the “one-hybrid fitness for binding parS DNA” value was no more than 0.2.

HHES: the “one-hybrid fitness for binding parS DNA” value is no more than 0.2.

FSPD: the “one-hybrid fitness for binding parS DNA” value is no more than 0.2.

With AEGE, the “one-hybrid fitness for binding parS DNA” value was no more than 0.2.

As for MSPR, the “one-hybrid fitness for binding parS DNA” value was no more than 0.2.

In the case of FAQR, the “one-hybrid fitness for binding parS DNA” value is no more than 0.2.

For the variant DKWF, the “one-hybrid fitness for binding parS DNA” value was no more than 0.2.

Turning to SIQY, the “one-hybrid fitness for binding parS DNA” value was no more than 0.2.

For IGYG, the “one-hybrid fitness for binding parS DNA” value is no more than 0.2.

As for RWPV, the “one-hybrid fitness for binding parS DNA” value is no more than 0.2.

With RDGD, the “one-hybrid fitness for binding parS DNA” value is no more than 0.2.

QHKS: the “one-hybrid fitness for binding parS DNA” value was no more than 0.2.

For the variant AEIS, the “one-hybrid fitness for binding parS DNA” value is no more than 0.2.

For KNDC, the “one-hybrid fitness for binding parS DNA” value is no more than 0.2.

In the case of HLSL, the “one-hybrid fitness for binding parS DNA” value was no more than 0.2.

Turning to RFGP, the “one-hybrid fitness for binding parS DNA” value is no more than 0.2.

As to DHQL, the “one-hybrid fitness for binding parS DNA” value was no more than 0.2.

For the variant MTCG, the “one-hybrid fitness for binding parS DNA” value is no more than 0.2.

As to YAFG, the “one-hybrid fitness for binding parS DNA” value was no more than 0.2.

As to INLS, the “one-hybrid fitness for binding parS DNA” value is no more than 0.2.

For the variant RLEI, the “one-hybrid fitness for binding parS DNA” value is no more than 0.2.

With DTEL, the “one-hybrid fitness for binding parS DNA” value is no more than 0.2.

For LGQM, the “one-hybrid fitness for binding parS DNA” value was no more than 0.2.

For the variant IPVS, the “one-hybrid fitness for binding parS DNA” value was no more than 0.2.

With QHIG, the “one-hybrid fitness for binding parS DNA” value is no more than 0.2.

Consider CQFL, for which the “one-hybrid fitness for binding parS DNA” value is no more than 0.2.

ACWS: the “one-hybrid fitness for binding parS DNA” value is no more than 0.2.

On to TRYR, for which the “one-hybrid fitness for binding parS DNA” value is no more than 0.2.

Take AAAP: the “one-hybrid fitness for binding parS DNA” value was no more than 0.2.

In the case of SFMC, the “one-hybrid fitness for binding parS DNA” value is no more than 0.2.
